About 14,000 (4.5%) of roughly 310,000 compounds showed an effect of 50% or more. Effects have a minus sign here. Some of the results follow.
Each molecule was assayed against human ether-à-go-go-related gene (hERG) potassium channel (human, UniProt Q12809) (assay: primary screen, population patch clamp on CHO cells stably expressing hERG).
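Note: peak tail current of the secondary pulse compared with the same well before compound.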

human ether-à-go-go-related gene (hERG) potassium channel, sequence (Q12809 whole entry, looked up): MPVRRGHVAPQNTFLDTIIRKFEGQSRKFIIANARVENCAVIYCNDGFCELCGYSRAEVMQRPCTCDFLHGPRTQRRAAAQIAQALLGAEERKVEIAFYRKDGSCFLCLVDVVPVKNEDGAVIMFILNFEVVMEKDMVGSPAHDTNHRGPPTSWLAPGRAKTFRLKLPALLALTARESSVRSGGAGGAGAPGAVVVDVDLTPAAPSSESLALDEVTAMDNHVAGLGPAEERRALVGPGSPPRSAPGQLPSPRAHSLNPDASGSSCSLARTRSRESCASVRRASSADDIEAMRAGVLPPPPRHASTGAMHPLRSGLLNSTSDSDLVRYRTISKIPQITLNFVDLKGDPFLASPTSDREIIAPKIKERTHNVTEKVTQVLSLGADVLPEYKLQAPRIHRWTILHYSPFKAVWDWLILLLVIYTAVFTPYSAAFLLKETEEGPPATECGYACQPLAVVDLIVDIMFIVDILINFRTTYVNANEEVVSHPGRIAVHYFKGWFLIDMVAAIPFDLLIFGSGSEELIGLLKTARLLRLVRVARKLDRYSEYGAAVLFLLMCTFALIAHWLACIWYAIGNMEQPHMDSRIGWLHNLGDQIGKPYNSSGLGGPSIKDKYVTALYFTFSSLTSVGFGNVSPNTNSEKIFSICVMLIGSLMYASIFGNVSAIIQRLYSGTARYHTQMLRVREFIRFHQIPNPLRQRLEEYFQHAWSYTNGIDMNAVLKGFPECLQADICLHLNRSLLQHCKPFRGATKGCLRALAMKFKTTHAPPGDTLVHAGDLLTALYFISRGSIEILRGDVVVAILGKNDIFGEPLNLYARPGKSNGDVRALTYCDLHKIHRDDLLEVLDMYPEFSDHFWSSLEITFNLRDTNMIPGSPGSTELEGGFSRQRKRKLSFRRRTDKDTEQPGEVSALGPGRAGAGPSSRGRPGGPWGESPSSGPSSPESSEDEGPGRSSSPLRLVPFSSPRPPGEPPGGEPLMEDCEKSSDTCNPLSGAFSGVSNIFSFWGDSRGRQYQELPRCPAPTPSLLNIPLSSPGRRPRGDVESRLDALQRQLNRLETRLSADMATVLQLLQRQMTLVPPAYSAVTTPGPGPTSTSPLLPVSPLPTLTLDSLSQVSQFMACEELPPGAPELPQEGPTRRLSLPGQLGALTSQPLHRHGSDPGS

Compound	hERG current change (%, negative = inhibition) at 10uM [%]
COc1cccc(C(c2nnnn2Cc2ccc(F)cc2)N2CCC(C(N)=O)CC2)c1OC (stereo not drawn)	-24.8
O=S(=O)(NC1=NCCCCC1)c1ccc(Cl)cc1	1.94
CC(NCc1ccc2c(c1)OCO2)c1ccccc1.Cl (stereo not drawn)	10.4
NC(=O)CSc1nc2c(sc3ccccc32)c(=O)n1CCCC(=O)NCC1CCCO1 (stereo not drawn)	-16.8
C(=N\Nc1nc2ccccc2[nH]1)/C1CCCCC1	-41.7
Cc1cccc(-n2c(C)cc(/C=N/O)c2C)c1	-8.95
CC1=C(C(=O)O)N2C(=O)C(NC(=O)c3ccn(C)n3)C2SC1 (stereo not drawn)	13.1
CN(C)S(=O)(=O)N1CCN(CC(=O)Nc2cc(Cl)ccc2Cl)CC1	-50.8
CN(C(=O)COC(=O)c1ccc(Br)o1)c1c(N)n(Cc2ccccc2)c(=O)[nH]c1=O	4.85
NS(=O)(=O)c1ccc(NC(=S)NNC(=O)c2cccs2)cc1	15.7
O=C(NCCN1C(=O)CSC1=O)C1CC(=O)N(c2ccccc2)C1 (stereo not drawn)	0.301
O=C(Nc1cccc(F)c1)/C(=C\c1ccco1)NC(=O)c1ccco1	3.93
O=C(c1cc(C(=O)N2CCCC2)cc([N+](=O)[O-])c1)N1CCCC1	17.5
CCOC(=O)Nc1ccccc1C(=O)Nc1cc(C)cc(C)c1	28.9
COc1cccc(NC(=O)CN(C)C(=O)CCSc2ccc(C)cc2)c1	-34
Cc1cc(C)c2c(N)c(C(=O)NCc3ccco3)sc2n1	-7.58
COC(=O)c1cn(CC(=O)N2CCCCCC2)c2ccccc12	-40.1
Cc1cccc(/N=C/c2c(C)[nH]n(-c3ccccc3)c2=O)n1	8.98
Cc1cc(C)n2nc(C(=O)OCC(=O)N3CC(C)CC(C)C3)nc2n1 (stereo not drawn)	15.4

Compound	hERG current change (%, negative = inhibition) at 10uM [%]
CC(C)S(=O)(=O)C/C(N)=N/OS(=O)(=O)c1ccc(Cl)cc1	4.67
COc1ccc(S(=O)(=O)N2CCCC(C(=O)NCc3ccc4c(c3)OCO4)C2)cc1 (stereo not drawn)	-9.93
Cc1ccc(S(=O)(=O)NCCC(=O)Nc2ccc3c(c2)OCO3)cc1	-0.997
COc1ccc(-n2c(O)c(/C=N/NS(=O)(=O)c3cccc([N+](=O)[O-])c3)c3ccccc3c2=O)cc1OC	3.99
CC(C)OP(=O)(c1ccc(N(C)C)cc1)C(Nc1ccccc1)c1ccccc1 (stereo not drawn)	-11.8
Cc1cccc(C(=O)Nc2ccc3ccccc3c2)c1	10.1
COc1ccc(NC(=S)N2CCN(CCN3C(=O)c4cccc5cccc(c45)C3=O)CC2)cc1	3.54
Cc1ccc(NC(=O)CCC(=O)NNC(=O)/C=C/C(=O)O)c(C)c1	1.99
COc1ccccc1P(=O)(c1ccccc1)c1ccc([N+](=O)[O-])cc1 (stereo not drawn)	-15.1
Cc1ccc2c(Cl)cc(Cl)c(OCC(=O)NCCc3ccccn3)c2n1	-42.7
CCCN1CCN(C(=O)C2CCN(S(=O)(=O)c3ccc4c(c3)NC(=O)C(C)S4)CC2)CC1 (stereo not drawn)	14.9
CC(C)CCNC(=O)c1cnn2c(C(F)(F)F)cc(-c3ccco3)nc12	-14.6
Cc1nn(C)cc1-c1csc(N)n1	15.2
Cc1nn(C)cc1C(C(=O)NC1CCCCC1)N(C(=O)Cc1cccs1)c1ccc(F)cc1 (stereo not drawn)	7.57
CCOC(=O)c1c[nH]c2c(C)cc(C)cc2c1=O	-0.349
CCOC(=O)C1=C(C)NC(=O)C1(NC(=O)c1cccnc1)C(F)(F)F (stereo not drawn)	5.76
CC1=C(C(=O)Nc2ccc(CC(=O)NCc3ccccc3C)cc2)SCCO1	18.7
Cc1ccc(-n2cccc2/C=C2/C(=N)N3C(=NC2=O)SN=C3S(C)(=O)=O)cc1Cl	6.18
Cn1nc(-c2ccccc2)c2cc([N+](=O)[O-])ccc21	11.3

Compound	hERG current change (%, negative = inhibition) at 10uM [%]
O=C(CNC(=O)c1ccco1)NCCCc1ccccc1	9.83
Cc1ccc2nc(NC(=O)c3ccco3)sc2c1	0.24
CC1CC(C)(C)n2c(O)c(N=NC(N)=S)c3cccc1c32 (stereo not drawn)	16.4
CCC(C)n1c(OC)nc2c1c(=O)n(C)c(=O)n2C (stereo not drawn)	7.19
CCc1nnc(NC(=O)Nc2ccc(OC)cc2)s1	5.19
CCCCCOC(=O)CSc1n[nH]c(=O)[nH]c1=O	-12.2
CCN1c2nc3c(C)cccn3c(=O)c2CC2(C(=O)N(C)C(=O)N(C)C2=O)C1C (stereo not drawn)	7.98
OCCNc1c2ccccc2nc2ccccc12	-31
CCc1nn(C(C)C(=O)Nc2cccc(C)c2C)c(=O)c2cc3occc3n12 (stereo not drawn)	-0.753
COc1ccc(S(=O)(=O)NCC(=O)N(CC(=O)NCc2ccco2)Cc2ccccc2)cc1	-10.6
COC(=O)C1=C(C)N(c2ccc(Cl)cc2)/C(=C/c2cccs2)C1=O	-6.79
CCOc1ccc(NC(=S)NNC(=S)Nc2cccc(C(F)(F)F)c2)cc1	21.6
COc1ccc(CC(=O)N2CCOCC2)cc1OC	4.62
COc1ccc(/C(O)=C2/C(=O)C(=O)N(Cc3ccco3)C2c2cccs2)cc1 (stereo not drawn)	9.46
CCOC(=O)CC(NC(=O)C1c2ccccc2Oc2ccccc21)c1ccc(C)cc1 (stereo not drawn)	5.66
Cc1cc(=O)[nH]c(SCC(=O)NCC2CCCCC2)c1C#N	11.4
COCCNC(=O)CN1C(=O)c2cccc3cccc1c23	12
Cc1cc(C)n(CCNC(=O)c2cc(COc3ccc4ncccc4c3)on2)n1	-3.15
COC(=O)CSc1nnc(-c2cnccn2)n1C	-10.3
